Data taken from PubChem BioAssay AID493208 (National Center for Advancing Translational Sciences (NCATS), 2011).
About 340 (0.77%) of roughly 44,000 compounds were called active. Inconclusive results (about 5%) are left out. The call rests on the fitted dose curve; in most records, active means well fitted inhibition curve with a large enough effect; inconclusive means small, poorly fitted or top-dose-only effect; inactive means flat fitted curve, though single readings scatter. The list shows a part of the results.

test: Acumen qHTS Assay for Inhibitors of the mTORC1 Signaling Pathway in MEF (Tsc2-/-, p53-/-) Cells: Sytravon; details: phospho-rpS6 immunofluorescence/PI, 24 h; series mostly up to 38.3 µM; activity change, negative = inhibition: at the top concentration;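 further: plate controls were DMSO for no effect and rapamycin for full effect; nearly all actives have a fitted effect of over 50% in size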
How it was run: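 Immunofluorescence of rpS6 phosphorylation in Tsc2-/-, p53-/- MEFs after 24 h compound exposure, normalized to propidium iodide signal. Activity is expressed as % positive cells, thresholded with 7.5 nM rapamycin.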

Activity change, negative = inhibition, inactive:
Cc1oc(-c2ccc(Cl)cc2)nc1CSCC(=O)NCc1ccccc1Cl 1.01%
COc1cccc(C(=O)Nc2c(C(=O)c3ccc(F)cc3)oc3ccccc23)c1 -4.81%
COC(=O)Cc1c(C)c2ccc3c(c2oc1=O)CN(Cc1ccccc1OC)CO3 -2.89%
CCC(=O)N1CCc2cc(Br)cc(S(=O)(=O)N3CCCC(C(=O)NCc4ccc(OC)cc4)C3)c21 (stereo not drawn) -19.9%
CCCOc1ccc(C2c3c(-c4ccccc4O)n[nH]c3C(=O)N2CCCOCC)cc1OCC (stereo not drawn) -5.12%
O=C(Nc1cccc(F)c1)c1cccc2c1C(=O)N(C1CCCCC1)C2 1.3%
CCC(=O)N1CCCc2cc(S(=O)(=O)N3CCC(C(=O)Nc4ccccc4CC)CC3)ccc21 -5.86%
CC1=C(c2ccc(C)c(C)c2)S(=O)(=O)N=C1N1CCC(C(=O)Nc2cccc(F)c2)CC1 -4.88%
COc1ccccc1NC(=O)Cn1c(=O)n(-c2cccc(Cl)c2)c(=O)c2c1c1cc(C)ccc1n2C -15.5%
CN1CCc2nc3sc(C(=O)Nc4cccc(C#N)c4)c(N)c3cc2C1 -17.8%
Cc1cc(C)cc(Nc2nnc(-n3nc(C)cc3C)c3ccccc23)c1 -23.3%
CCc1ccccc1NC(=O)CSc1ncc(S(=O)(=O)c2ccccc2)c(=O)[nH]1 -0.0398%
CCN1CCN(Cc2c(O)ccc3oc(C)c(C(=O)Nc4ccc(C)cc4C)c23)CC1 7.41%
Cc1cccc(OCC(=O)Nc2ccc(Cl)c(-c3nc4ccccc4[nH]3)c2)c1 -11%
CCCOc1ccc(NC(=O)CC2C(=O)N(c3ccc(Cl)cc3)C(=O)N2CCc2ccncc2)cc1 (stereo not drawn) -11.9%
O=C(CC1C(=O)N(c2ccccc2)C(=O)N1Cc1ccc2c(c1)OCO2)Nc1ccccc1 (stereo not drawn) 0.7%
Cc1c(C)n(Cc2ccc(F)cc2)c2ccc(C(=O)Nc3ccc(Cl)cc3)cc12 -7.15%
Cc1ccc(-c2cc3c(n2-c2ccccc2F)CC(C)(C)CC3=O)cc1 -8.39%
O=C1CC(c2nnc(Cc3ccccc3Cl)o2)CN1c1ccccc1 (stereo not drawn) -10.1%
CCOC(=O)c1ccc(CN(Cc2ccccc2C)S(=O)(=O)c2ccc(F)c(C(=O)Nc3cccc(OC)c3)c2)cc1 1.97%
O=C(CN1C(=O)CSc2ccc(S(=O)(=O)N3CCCC3)cc21)NCc1ccc(Cl)cc1 -2.99%
COc1ccc(NC(=O)c2oc3ccccc3c2NC(=O)Cc2cccs2)cc1 -12.6%
CCOC(=O)c1cnc2ccc(C)cc2c1NCCc1ccc(OC)c(OC)c1 -7.77%
Cc1ccc(NC(=O)c2sc3nc(-c4ccc(F)cc4)ccc3c2N)cc1F -26.1%
COc1ccc(C)cc1NC(=O)N1CCN(c2cc(-c3noc(C)n3)ccc2C)CC1 -8.82%
O=C(Cn1cc(C(=O)C2CC2)c2ccccc21)Nc1ccc(Br)cc1 9.02%
COc1ccccc1N1CCN(c2ccc(-c3nc(-c4ccccc4)no3)cc2[N+](=O)[O-])CC1 -0.43%
CC(=O)c1ccc(NC(=O)CCCc2nc(-c3cccc(C)c3)no2)cc1 -1.35%
CCn1c(=O)sc2cc(NC(=O)c3cccc(OC)c3)ccc21 2.63%
COc1ccc(C2CC(=O)c3c(C)nc(N4CCN(C=O)CC4)nc3C2)c(OC)c1 (stereo not drawn) -2.44%
CCN1CCN(c2nnc(-n3cccc3C(=O)Nc3cccc(OC)c3)s2)CC1 11.8%
O=C(Cn1ccn(-c2ccc(F)c(F)c2)c(=O)c1=O)c1ccc(F)cc1 7.37%
CC(C)c1nn2c(=O)cc(COC(=O)CNC(=O)c3ccccc3Cl)nc2s1 1.69%
CCOc1ccc(Cn2c(CNS(=O)(=O)c3c(C)cc(C)cc3C)nc3cccnc32)cc1 1.84%
Cc1nnc(NC(=O)CSc2nccn2-c2ccc(Cl)cc2)s1 -1.26%
CCC(C)n1c(SCc2ccc(C(C)(C)C)cc2)nc2ccsc2c1=O (stereo not drawn) 0.691%
Cc1ccc(OCc2nc(-c3ccc(C(=O)N4CCN(c5cc(Cl)ccc5C)CC4)cc3)oc2C)cc1 -4.23%
O=S(=O)(c1ccccc1)c1nc(-c2cccs2)oc1SCc1ccccc1Cl 2.62%
CCOC(=O)CC(=O)CSc1nc2ccccc2c(=O)n1-c1ccc(C(=O)NCCOC)cc1 0.974%
COC(=O)c1ccc(C(=O)OC)c(NC(=O)N2CC3CCCN3c3ccccc32)c1 (stereo not drawn) -1.11%
O=C(CC1NCCNC1=O)Nc1ccccc1F (stereo not drawn) 4.73%
CCOC(=O)c1c(-c2ccc(C)cc2)csc1NC(=O)c1cc(=O)c2cc(Cl)ccc2o1 1.92%
CCOc1ccccc1NC(=O)CSc1nc2c([nH]c3ccccc32)c(=O)n1-c1ccccc1 -0.878%
Cc1ccc(Cl)cc1N1CCN(C(=O)c2cc3c(=O)n(C)c4ccccc4c3s2)CC1 3.21%
Cc1ccc2nc(COc3cccc(NC(=O)COc4ccccc4F)c3)cc(=O)n2c1 -14.4%
CCOC(=O)c1cc(-c2ccccc2)n(-c2cccc(C(=O)Nc3cccc(C)c3)c2)c1C -6.07%
O=C(C1CC1)N1CCc2cc(Br)cc(S(=O)(=O)N3CCN(c4cccc(Cl)c4)CC3)c21 -8.02%
O=C(Nc1ccc2nc(SCC(=O)N3CCCC3)sc2c1)c1ccc(Br)cc1 -1.28%
Cc1ccc(CSc2ccc3nnc(CCNS(=O)(=O)c4ccc(C)cc4)n3n2)cc1 -3.14%
Cc1cccc(OCC(=O)OCc2cc(=O)n3nc(-c4cccs4)sc3n2)c1 0.0017%
CCC(C)NC(=O)Cn1c(=O)n(-c2ccc(Cl)c(Cl)c2)c(=O)c2c(C)c(C(=O)N(CC)CC)sc21 (stereo not drawn) -2.35%
Cc1ccc(-n2ncc(C(=O)N3CCN(c4ccccn4)CC3)c2C2CCN(C(=O)OC(C)(C)C)CC2)cc1 -30%
Cc1ccc(NC(=O)c2cc(S(=O)(=O)N3CCCc4ccccc43)ccc2F)cc1F 0%
COc1ccc(Nc2c(-c3ccc(C)o3)nc3ccc(Cl)cn23)cc1 6.21%
COC(=O)c1ccccc1NC(=O)Cn1c(=O)nc(-c2ccccc2)c2cc(Cl)ccc21 0%
Cc1cccc(C)c1Nc1c(-c2cccs2)nc2ncccn12 1.59%
CCCCC(=O)Nc1cc2nn(-c3ccc(OCC)cc3)nc2cc1C -12.2%
CC(=O)c1ccc(NC(=O)c2ccc(NC(=O)CCS(=O)(=O)c3cccs3)cc2)cc1 -4.05%
Cc1cccc(Cn2cc(S(=O)(=O)c3ccc(Cl)cc3)c(=O)c3cc4c(cc32)OCO4)c1 -2.87%
Cc1ccc(OCC(=O)Nc2cc(-c3nc4ccccc4[nH]3)ccc2C)c(C)c1 -21.8%
Cn1c(=O)c2c(SCC(=O)NCC3CCCO3)nc(-c3cccc(F)c3)nc2n(C)c1=O (stereo not drawn) 10.3%
CS(=O)(=O)N1CCC(n2c(C(F)(F)F)nc3cccnc32)CC1 -0.342%
Cc1cccc(OCCSc2nc3ccc(NC(=O)c4cccs4)cc3s2)c1 -19.9%
CCn1c(CN2CCCCC2)nc2cc(NC(=O)c3ccccc3[N+](=O)[O-])ccc21 -9.79%
CSc1ncc(C(=O)NCc2ccc(Cl)cc2)c(C(F)(F)F)n1 -10.4%
Cc1ccc(NC(=O)c2c(C(=O)Nc3ccccc3)sc3nc(C)cc(=O)n23)c(C)c1 4.22%
Cc1nn(-c2ccccc2)c(OC(=O)c2ccc(F)cc2)c1S(=O)(=O)c1ccccc1 -7.05%
CCN(C(=O)CCNC(=O)Cn1cnc2ccccc2c1=O)c1cccc(Cl)c1 -8.11%
COc1ccc(C2=C(C)C(N3CCC(C(=O)Nc4cc(C)ccc4C)CC3)=NS2(=O)=O)cc1 0%
CCCn1cc(S(=O)(=O)c2ccc(C)cc2)c(=O)c2cc(OC)c(OC)cc21 -0.693%
COc1cccc(NC(=O)C(=O)NCCc2csc(-c3ccc(C)cc3)n2)c1 0.618%
COC(=O)c1ccc(Cl)cc1NC(=O)NCc1c(-n2cccc2)sc2c1CCCC2 1.62%
CCOc1ccc(C(=O)Nc2ccc(C(=O)OCc3cc(=O)n4ccsc4n3)cc2)cc1 0%
CCOC(=O)c1ccc(NC(=O)c2csc3c2CCCC3)cc1 0.928%
COc1cccc(N2CCN(C(=O)c3cc4c(=O)n(Cc5cccs5)ccc4nc3C)CC2)c1 -8.21%
Cc1ccc(CNC(=O)Cn2ncc3c([nH]c4ccc(C)cc43)c2=O)cc1 4.98%
COc1ccccc1NC(=O)CN1C(=O)CC(c2ccc(C)c(C)c2)=Nc2ccccc21 0%
COc1ccc(CCNC(=O)c2ccc(-n3c(C)cc4c3CCCC4)cc2)cc1OC -6.63%
CCCc1cc(=O)[nH]c(SCc2nc(-c3ccc(C)cc3)no2)n1 2.34%
COc1ccccc1CCNC(=O)Cc1c(C)c2cc3c(C(C)(C)C)coc3c(C)c2oc1=O 2.98%
Cc1cccc(NC(=O)Cn2cnc(S(=O)(=O)N3CCCC3)c2)c1C -11.6%
CC(C)Oc1ccc(CNC(=O)Nc2ccc3c(c2)N(C)C(=O)c2ccccc2S3)cc1 -5.89%
COc1ccc(N2CCN(S(=O)(=O)CCNC(=O)COc3cccc(OC)c3)CC2)cc1 -17.9%
CCCSc1ncc(Cl)c(C(=O)Nc2c(C(=O)Nc3ccccc3)oc3ccccc23)n1 2.19%
Cc1cccc(Cn2c(SCc3ccc(C(=O)N4CCC(C)CC4)cc3)nc3ccncc32)c1 -0.301%
O=C(OCC1CCCO1)c1ccc2c(c1)N(Cc1cccc(Cl)c1)C(=O)c1ccccc1S2(=O)=O (stereo not drawn) 0.981%
Cc1ccc(NC(=O)NCCOCCn2c(=O)oc3ccccc32)cc1F 3.27%
Cc1cccc(NC(=O)c2c(NC(=O)c3ccccc3)sc3c2CCCC3)c1 8.56%
Cc1cc(C)c2c(n1)nn1c(C)c(CCC(=O)NCc3ccccc3Cl)c(C)nc21 -5.99%
CCOc1ccc(-c2cc3nc(C4CCN(C(=O)OC(C)(C)C)CC4)c(C(=O)Nc4ccc(C)cc4Cl)cn3n2)cc1 -18.6%
COC(=O)c1c(C)sc(-c2c(-c3ccc4c(c3)OCCO4)[nH]c3[nH]c(=O)[nH]c(=O)c23)c1O 0.0443%
CN1CCSc2ccc(C(=O)NCc3ccccc3F)cc21 -5.33%
CCC(Sc1nc2ccccc2c2nc(CCc3c(C)n[nH]c3C)nn12)C(=O)Nc1ccc(OC)cc1 (stereo not drawn) 2.03%
